Assay results from the supplement of paper PMC8047034.
Counter-ions that a name gives are not always drawn. This is one part of the list. Single values are uncertain, as repeats are few or missing.

These compounds were tested on Ov4Carbo (assay: log2 surviving fraction (library drug vs vehicle, or drug + carboplatin vs carboplatin alone; relative to plate median); ovarian cancer lines: OVCAR4 is platinum-sensitive and Ov4Carbo platinum-resistant; higher = more cell survival). Settings: library drug concentration 10 µM; 7 days; carboplatin co-treatment 0 µM.

SMILES	log2 surviving fraction
CC(=O)OCC(=O)[C@H]1CC[C@H]2[C@@H]3CCC4=CC(=O)CC[C@]4(C)[C@H]3CC[C@]12C [Deoxycorticosterone acetate]	0.323
CCOC(=O)c1ccc(N)cc1 [Benzocaine]	-0.812
O=C(Nc1cccc2c(=O)cc(-c3nnn[nH]3)oc12)c1ccc(OCCCCc2ccccc2)cc1 [Pranlukast]	0.163
CCCCOc1ccc(OCCCN2CCOCC2)cc1 [Pramoxine HCl]	-0.412
CCOC(=O)C(C)(C)Oc1ccc(Cl)cc1 [Clofibrate (Atromid-S)]	-0.55
CN1Cc2c(N)cccc2C(c2ccccc2)C1 (configuration not stated) [Nomifensine Maleate]	-0.00667
CC(C)(O)c1ccccc1CC[C@@H](SCC1(CC(=O)O)CC1)c1cccc(/C=C/c2ccc3ccc(Cl)cc3n2)c1 [Montelukast Sodium]	0.272

Same assay, conditions: library drug concentration 10 µM; 7 days; carboplatin co-treatment 5 µM

SMILES	log2 surviving fraction
NC12CC3CC(CC(C3)C1)C2 [Amantadine hydrochloride (Symmetrel)]	0.525
CCC1(c2ccc(N)cc2)CCC(=O)NC1=O (configuration not stated) [Aminoglutethimide (Cytadren)]	0.234
Clc1ccc(COC(Cn2ccnc2)c2ccc(Cl)cc2Cl)cc1 (configuration not stated) [Econazole nitrate (Spectazole)]	-1.3
CC1CNc2c(cccc2S(=O)(=O)N[C@@H](CCCNC(=N)N)C(=O)N2CC[C@@H](C)C[C@@H]2C(=O)O)C1 (some centres not stated) [Argatroban]	0.857
Fc1ccc([C@@H]2CCNC[C@H]2COc2ccc3c(c2)OCO3)cc1 [Paroxetine HCl]	-4.62
O=P(O)(O)C(O)(Cc1cccnc1)P(=O)(O)O [Risedronic acid (Actonel)]	0.135
C[C@](N)(Cc1ccc(O)c(O)c1)C(=O)O [Methyldopa (Aldomet)]	-0.481
CN1CCN(c2cc3c(cc2F)c(=O)c(C(=O)O)cn3-c2ccc(F)cc2)CC1 [Difloxacin HCl]	-0.116
C[C@H](CCC(=O)O)[C@H]1CC[C@H]2[C@@H]3[C@H](O)C[C@@H]4C[C@H](O)CC[C@]4(C)[C@H]3CC[C@]12C [Chenodeoxycholic acid]	-0.17
Cc1ccc2c(Cl)cc(Cl)c(O)c2n1 [Chlorquinaldol]	-6.59
O=C1c2ccccc2C(=O)C1c1ccccc1 [Phenindione (Rectadione)]	0.793
CC(C)NC[C@@H](O)COc1ccc(CC(N)=O)cc1 [(R)-(+)-Atenolol]	0.284
CC(CCc1ccc(O)cc1)NCC(O)c1ccc(O)cc1 (configuration not stated) [Ractopamine HCl]	-0.768
COc1ccc([C@H]2CNC(=O)C2)cc1OC1CCCC1 [S-(+)-Rolipram]	-1.15
O=C(O)c1cn(C2CC2)c2cc(N3CCNCC3)c(F)cc2c1=O [Ciprofloxacin (Cipro)]	0.0352
NCCS(=O)(=O)O [Taurine]	-0.309
CC(=O)Nc1cc([As](=O)(O)O)ccc1O [Acetarsone]	-0.637
Nc1ccc(/N=N/c2ccccc2)c(N)n1 [Phenazopyridine HCl]	0.126
CCc1cc2c(cc1CC)CC(NC[C@H](O)c1ccc(O)c3[nH]c(=O)ccc13)C2 [Indacaterol Maleate]	0.223
COCCc1ccc(OCC(O)CNC(C)C)cc1 (configuration not stated) [Metoprolol tartrate]	0.394

SMILES	log2 surviving fraction
COc1cc2nc(N3CCN(C(=O)c4ccco4)CC3)nc(N)c2cc1OC [Prazosin HCl]	0.655
C[N+](C)(C)CCOC(N)=O [Carbachol]	0.832
C[C@H](N[C@@H](CCc1ccccc1)C(=O)O)C(=O)N1CCC[C@H]1C(=O)O [Enalaprilat dihydrate]	0.5
CCOc1cc(CC(=O)N[C@@H](CC(C)C)c2ccccc2N2CCCCC2)ccc1C(=O)O [Repaglinide]	0.851
CCCCNc1ccc(C(=O)OCCN(C)C)cc1 [Tetracaine hydrochloride (Pontocaine)]	0.381
CC[C@H](C)[C@H](N)C1=N[C@H](C(=O)N[C@@H](CC(C)C)C(=O)N[C@H](CCC(=O)O)C(=O)N[C@H](C(=O)N[C@H]2CCCCNC(=O)[C@H](CC(N)=O)NC(=O)[C@@H](CC(=O)O)NC(=O)[C@H](Cc3cnc[nH]3)NC(=O)[C@@H](Cc3ccccc3)NC(=O)[C@H]([C@@H](C)CC)NC(=O)[C@@H](CCCN)NC2=O)[C@@H](C)CC)CS1 [Bacitracin]	0.726
CC(=O)O[C@@]12CO[C@@H]1C[C@@H](O)[C@@]1(C)C(=O)[C@H](O)C3=C(C)[C@@H](O)C[C@@](O)([C@@H](OC(=O)c4ccccc4)[C@H]21)C3(C)C [10-DAB (10-Deacetylbaccatin)]	-3.75
O=c1[nH]c(=O)n([C@H]2C[C@H](O)[C@@H](CO)O2)cc1I [Idoxuridine]	-1.93
CCOc1ccc2nc3cc(N)ccc3c(N)c2c1 [Ethacridine lactate monohydrate]	-7.14
CC(C)NCC(O)c1ccc(O)c(O)c1 (configuration not stated) [Isoprenaline hydrochloride]	0.407
Cl.N=C(N)NCCC[C@H](N)C(=O)O [L-Arginine HCl]	-0.42
Cc1cccc(Nc2ccccc2C(=O)O)c1C [Mefenamic acid]	-1.39
CCOc1cc(N)c(Cl)cc1C(=O)NCC1CN(Cc2ccc(F)cc2)CCO1 (configuration not stated) [Mosapride citrate]	0.181
CC(=O)OCC(=O)[C@H]1CC[C@H]2[C@@H]3CCC4=CC(=O)CC[C@]4(C)[C@H]3CC[C@]12C [Deoxycorticosterone acetate]	1.24
CCOC(=O)c1ccc(N)cc1 [Benzocaine]	-0.358
O=C(Nc1cccc2c(=O)cc(-c3nnn[nH]3)oc12)c1ccc(OCCCCc2ccccc2)cc1 [Pranlukast]	0.0365
CCCCOc1ccc(OCCCN2CCOCC2)cc1 [Pramoxine HCl]	-0.0106
CCOC(=O)C(C)(C)Oc1ccc(Cl)cc1 [Clofibrate (Atromid-S)]	0.314
CN1Cc2c(N)cccc2C(c2ccccc2)C1 (configuration not stated) [Nomifensine Maleate]	-2.24
CC(C)(O)c1ccccc1CC[C@@H](SCC1(CC(=O)O)CC1)c1cccc(/C=C/c2ccc3ccc(Cl)cc3n2)c1 [Montelukast Sodium]	0.335
